Hit rate of the full screen: of about 310,000 compounds, about 14,000 (4.5%) showed an effect of 50% or more. Effects have a minus sign here. The list shows a part of the results.
Molecular target: human ether-à-go-go-related gene (hERG) potassium channel (human, UniProt Q12809)
Assay: primary screen, population patch clamp on CHO cells stably expressing hERG
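Further: peak tail current of the secondary pulse compared with the same well before compound.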

human ether-à-go-go-related gene (hERG) potassium channel, sequence (Q12809 whole entry, looked up): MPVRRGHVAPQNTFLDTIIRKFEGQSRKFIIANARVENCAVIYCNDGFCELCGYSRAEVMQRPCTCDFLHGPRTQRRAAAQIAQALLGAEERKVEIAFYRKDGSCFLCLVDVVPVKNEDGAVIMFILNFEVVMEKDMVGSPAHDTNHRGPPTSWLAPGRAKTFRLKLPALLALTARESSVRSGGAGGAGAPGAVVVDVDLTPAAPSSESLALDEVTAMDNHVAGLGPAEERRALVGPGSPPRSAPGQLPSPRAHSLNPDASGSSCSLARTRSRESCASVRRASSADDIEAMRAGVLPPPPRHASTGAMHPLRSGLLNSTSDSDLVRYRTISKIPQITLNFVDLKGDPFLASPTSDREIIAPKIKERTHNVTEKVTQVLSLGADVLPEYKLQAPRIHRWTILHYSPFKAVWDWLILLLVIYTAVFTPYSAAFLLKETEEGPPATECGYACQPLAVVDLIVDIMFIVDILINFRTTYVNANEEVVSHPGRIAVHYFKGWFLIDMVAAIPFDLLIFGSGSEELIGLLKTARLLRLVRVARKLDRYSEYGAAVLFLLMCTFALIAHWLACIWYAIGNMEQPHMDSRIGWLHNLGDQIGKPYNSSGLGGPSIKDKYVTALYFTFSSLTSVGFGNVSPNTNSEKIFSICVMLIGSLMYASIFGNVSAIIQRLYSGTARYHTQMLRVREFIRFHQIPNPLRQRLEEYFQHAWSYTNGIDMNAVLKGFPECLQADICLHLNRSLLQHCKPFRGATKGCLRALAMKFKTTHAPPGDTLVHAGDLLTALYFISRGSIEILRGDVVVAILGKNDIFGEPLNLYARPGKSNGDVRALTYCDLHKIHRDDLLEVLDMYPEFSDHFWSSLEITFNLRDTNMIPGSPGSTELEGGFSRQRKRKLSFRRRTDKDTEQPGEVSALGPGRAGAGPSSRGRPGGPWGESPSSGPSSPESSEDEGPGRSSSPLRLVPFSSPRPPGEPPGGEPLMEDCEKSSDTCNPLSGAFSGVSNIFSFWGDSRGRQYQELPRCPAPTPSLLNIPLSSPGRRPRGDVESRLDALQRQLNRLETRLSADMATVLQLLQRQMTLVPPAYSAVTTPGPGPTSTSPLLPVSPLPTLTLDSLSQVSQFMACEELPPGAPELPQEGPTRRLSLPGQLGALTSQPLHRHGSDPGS

Row | Structure (SMILES) | hERG current change (%, negative = inhibition) at 10uM [%]
1 | Cc1cccc(N(Cc2ccc(Cl)cc2)S(C)(=O)=O)c1 | 21.1
2 | O=C(CNC(=S)N(CCCN1CCOCC1)Cc1cccs1)NC1CCCC1 | -19.7
3 | O=c1c2ccccc2nc(SCc2nc3ccccc3s2)n1CCCO | -4.88
4 | Cc1ccc(C(=O)NCC(=O)OCC(=O)c2cc(C)n(Cc3ccco3)c2C)cc1 | -12.1
5 | CC1COc2ccccc2N1C(=O)c1ccc(Cl)cc1 (stereo not shown) | 15.7
6 | O=C(CSc1ncc(C(F)(F)F)cc1Cl)N1CCN(S(=O)(=O)c2ccccc2)CC1 | -32.7
7 | C/C(Cl)=C/Cn1c(SCCN2CCOCC2)nc2c1c(=O)[nH]c(=O)n2C | -64.6
8 | Cc1ccc(S(=O)(=O)N(C)c2ccccc2)cc1 | -11.8
9 | O=C(COC(=O)c1ccccc1Br)Nc1ccc2[nH]c(=O)[nH]c2c1 | -2.99
10 | Cc1sc2ncnc(N3CCC(C(=O)Nc4ccc(C#N)c(Cl)c4)CC3)c2c1C | -7.2
11 | COCCn1cnc2c1c(=O)n(Cc1cc(C(C)=O)ccc1OC)c(=O)n2Cc1ccccc1 | -30.8
12 | COc1ccccc1-n1c(O)c(C=NC2CC2)c(=O)[nH]c1=O | -8.21
13 | C=CCN(CC=C)CC(=O)Nc1ccc(S(N)(=O)=O)cc1 | -9.56
14 | Cc1nn(CCC(=O)NNC(=S)Nc2ccc([N+](=O)[O-])cc2)c(C)c1[N+](=O)[O-] | -27.4
15 | N#CC1=C(S)N(c2ccccc2)C(c2ccco2)NC1=O (stereo not shown) | 14.3
16 | O=C(CSc1nc2c(c(=O)n1-c1ccc(Br)cc1)SCC2)NCC1CCCO1 (stereo not shown) | -60.9
17 | Cc1ccc(-n2c(SCC(N)=O)nc(O)cc2=O)cc1 | 23
18 | c1ccc(-c2nc3cc4ccccc4cc3[nH]2)nc1 | 8.33
19 | CC(=O)c1cccc(CN2CCCC(CCC(=O)NCc3ccccc3F)C2)c1 (stereo not shown) | -48.5
20 | CCn1c(CNC(=O)c2cccnc2)cc2ccccc21 | 2.41

Row | Structure (SMILES) | hERG current change (%, negative = inhibition) at 10uM [%]
21 | CCc1ccc(-c2nc(CN3CCC(C(=O)N4CCN(c5ccccn5)CC4)CC3)c(C)o2)cc1 | -68.5
22 | O=C1CCCCCCC1Sc1ccccc1[N+](=O)[O-] (stereo not shown) | -15.8
23 | CC(C)COC(=O)c1ccc(N2C(=O)c3ccccc3C2=O)cc1 | 12
24 | O=C(Nc1cnn(Cc2ccc(Cl)cc2)c1)c1ccc([N+](=O)[O-])cc1 | -31.4
25 | N#CCc1ccc(Oc2ncc(C(F)(F)F)cc2Cl)cc1 | -3.13
26 | O=C1Cc2cc(S(=O)(=O)Nc3cccc([N+](=O)[O-])c3)cc3c2N1CCC3 | -4.79
27 | CN(C)/C=N/C(=S)Nc1ccc(Cl)c(Cl)c1 | 6.42
28 | COc1ccccc1CCNC(=O)C1CCC(=O)N(C2CCCCCC2)C1 (stereo not shown) | -7.62
29 | CCOc1ccccc1OCC(=O)Oc1ccc(C)c(C)c1 | 6.76
30 | COCP(=O)(c1ccccc1)c1ccccc1 | -0.335
31 | CC(C)C(=O)Nc1cccc(C(=O)N2CCCCC2C)c1 (stereo not shown) | -0.33
32 | CCN(CC)c1ccc(/C=C2\C(=O)N(c3nnc(C)c(=O)[nH]3)N=C2C)cc1 | -35.7
33 | Cc1ccc(/C=C/C(=O)c2ccc(O)cc2)cc1 | 5.72
34 | CCN(c1c(C)n(C)n(-c2ccccc2)c1=O)S(C)(=O)=O | 21.5
35 | COCCCNC(=O)c1ccc2c(=O)n(Cc3ccc4c(c3)OCO4)c(=S)[nH]c2c1 | 2.75
36 | COc1ccc(-c2nc3nc(C)cc(=O)n3[nH]2)cc1 | 17.9
37 | CC1(C)CC(=O)C2=C(C1)NC(Nc1nc3ccccc3o1)=NC21CCCCC1 | 2.86
38 | O=C(OCCCN=C1NS(=O)(=O)c2ccccc21)c1cccs1 | 1.64
39 | O=C(CN1C(=O)S/C(=C\c2ccccc2)C1=O)NNC(=O)c1ccccc1O | 2.95
40 | CCN1C(=O)CS/C1=N\S(=O)(=O)c1ccc(C)cc1 | 0.522

Row | Structure (SMILES) | hERG current change (%, negative = inhibition) at 10uM [%]
41 | CCOc1ccc(S(=O)(=O)N2CCC(C(=O)NC3CC3)CC2)cc1Cl | -2.44
42 | COc1ccc(C(=O)N2CCC(O)(c3ccc(F)cc3)CC2)cc1OC | -38.6
43 | O=C(O)CC(NC(=O)c1cccc(F)c1)c1ccc(OC2CCCC2)cc1 (stereo not shown) | 15.1
44 | CCOC(=O)CON1C(=O)c2ccccc2C1=O | -5.5
45 | Clc1ccccc1CSc1cc2c(nn1)-c1ccccc1CC2 | -38
46 | COc1ccc(CN2CCN(C(=O)CCC(=O)c3ccc(C)s3)CC2)cc1OC | -20.3
47 | CCOC(=O)C1CCN(Cc2ccc3ccccc3c2)CC1 | -17.1
48 | CCSc1nnc(NC(=O)CN2C(=O)NC3(CCCC3)C2=O)s1 | 0.00088
49 | CCCCNc1c(-c2cccc(SC3CCCCC3)c2)nc2ccc(Cl)cn12.O=C(O)C(F)(F)F | 3.32
50 | CSc1ccc(CNc2ccc(Cl)cc2)cc1 | 0.308
51 | O=C(NCCC1=CCCCC1)c1cccc2c1C(=O)N(C1CCCCC1)C2 | 9.87
52 | Nc1nn(S(=O)(=O)c2cccc3nsnc23)cc1-c1ccc(Br)cc1 | -3
53 | CCOc1ccc(C(=O)CCC(=O)N(CC)CC(=O)NCc2ccc(Cl)cc2)cc1 | -70.3
54 | O=c1[nH]c2ccc(Cl)cc2c(O)c1-c1ccccc1 | 15.6
55 | COCc1nnc(NC(=O)CSCc2ccccc2)s1 | 16.9
56 | COC(=O)c1cccc(COC(=O)CNC(=O)c2ccco2)c1 | 6.79
57 | CC(c1ccccc1)N1CCc2[nH]c(=S)[nH]c(=O)c2C1 (stereo not shown) | 11
58 | O=S(=O)(c1ccccc1)N1c2cc(Cl)ccc2Oc2nc3ccccc3nc21 | -5.04
